Reference: PubChem BioAssay AID686970 (National Center for Advancing Translational Sciences (NCATS), 2013)
Out of some 360,000 compounds screened, about 6,000 (1.7%) were called active. Inconclusive means that the source gave no clear call. Such entries were picked first, then a sample of the others. Calls come from the whole dose curve; as a rule, active = well fitted cell-killing curve with a large enough effect; inconclusive = small, poorly fitted or top-dose-only effect, or effect the other way; inactive = flat fitted curve, though single readings scatter. Potencies of inconclusive entries are left out as doubtful fits.

assay: qHTS for induction of synthetic lethality in tumor cells producing 2HG: qHTS for the HT-1080-NT fibrosarcoma cell line; settings: HT-1080-NT fibrosarcoma viability, CellTiter-Glo ATP luminescence, 48 h; activity, negative = less viability: at 46.1 µM (top of the series) unless noted;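 note: NT is the 2HG producing partner of a matched IDH1 knockdown line; nearly all actives have a fitted effect of over 55% in size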;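 for activity, negative = less viability: 0% = DMSO-treated cells and -100% = media-only wells without cells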
Summary of the method: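 Fibrosarcoma NT cells, 750 per well in 5% FBS RPMI, were exposed to compound for 48 hours. Viability: CellTiter-Glo luminescence.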
Potency is the fitted concentration of half-maximal effect; tags give direction and shape of the fitted curve.

Row | SMILES | Potency | activity, negative = less viability
1 | Cn1c(=O)n(C)c2cc(/C=N/NC(=O)c3ccc(Cl)cc3)ccc21 | inconclusive [cytotoxic, single point] | –
2 | O=C(COC(=O)CNC(=O)c1ccc(Cl)cc1Cl)Nc1ccc(N2CCOCC2)cc1 | inactive | –
3 | CC(CCCN(C)C)C(Cc1ccccc1)c1ccccc1 (configuration not stated) | inconclusive [cytotoxic, single point] | –
4 | O=C(COc1ccc(F)cc1Br)Nc1ccccc1N1CCOCC1 | inactive | –
5 | COc1cc(Nc2ccc(C)cc2)c([N+](=O)[O-])nc1[N+](=O)[O-] | active: 3.16 µM | –
6 | COc1ccc(-c2ccccc2)cc1NC(=O)[C@@H]1O[C@H](CO)[C@@H](O)[C@H]1O | inactive | –
7 | COc1ccc(N2C(=O)CC(Sc3nc(C)c4c(n3)CCCC4)C2=O)cc1 (configuration not stated) | active: 14.6 µM | –
8 | CCC(C)Nc1nc(N)c([N+](=O)[O-])c(Nc2cc(OC)ccc2OC)n1 (configuration not stated) | inconclusive [cytotoxic, single point] | –
9 | Cc1cc(N2CCN(C)CC2)nc2ccc(NC(=S)NCc3cccs3)cc12 | active: 18.4 µM | –
10 | CN1c2ccccc2C2(C)CCCC3=Cc4cc([N+](=O)[O-])cc([N+](=O)[O-])c4OC312 (configuration not stated) | inactive | –
11 | CSc1ccc(NC(=O)C2(C)CCN2C(=O)Cc2ccc(C(C)(C)C)cc2)cc1 (configuration not stated) | inconclusive [cytotoxic, single point] | –
12 | Cc1nn(-c2ccccc2)nc1CNC(=O)CC(C)(C)C | inactive | –
13 | COc1ccc2oc(=O)c(C(=O)NCc3ccc(C)cc3)cc2c1 | inconclusive [rising, full curve] | –
14 | CCOC(=O)c1c(C)[nH]c(C=C2C(=O)CCCC2=O)c1O | inactive | –
15 | C[C@@H]1CC=C[C@H]2[C@H]1C(=O)N(Cc1ccccc1)[C@H]2c1ccc2ccccc2c1Br | inactive | –
16 | COc1ccc(C(O)c2nc(-c3cccc(C(C)C)c3)cs2)cc1 (configuration not stated) | inconclusive [cytotoxic, partial curve] | –
17 | O=C(Nc1nccs1)C1CC(=O)N(Cc2ccco2)C1 (configuration not stated) | inactive | –
18 | C#CCOCCOCCOCCNc1nc(N2CCN(C(=O)CCCCCCCCCCNC(=O)[C@@H](CCSC)n3cc(CCO)nn3)CC2)nc(N2CCN(C(=O)CCCCCCCCCCNC(=O)[C@H]([C@@H](C)CC)n3cc(CCCCN=C(N)N)nn3)CC2)n1 | inconclusive [cytotoxic, single point] | –
19 | Cc1cccnc1C(NC(=O)C1CCN(Cc2cn(C)c3ccccc23)CC1)c1ccc(Cl)cc1 (configuration not stated) | active: 11.6 µM | –
20 | Cc1nnc2c(N3CCN(C(=O)c4ccco4)CC3)nc3ccccc3n12 | inactive | –
21 | Cc1ccc(NS(=O)(=O)c2cc([N+](=O)[O-])ccc2NNC(=S)Nc2cc(C)ccc2C)c(C)c1 | inconclusive [cytotoxic, single point] | –
22 | CCOC(=O)C1(CCOc2ccccc2)CCN(Cc2cccc3c2OCO3)CC1 | active: 20.6 µM | –
23 | Cc1cccc(NC(=O)Nc2ccc(Cl)c(Cl)c2)n1 | – | inconclusive: -0.287% [cytotoxic]
24 | NC(=O)CN1C(=O)C(O)(CC(=O)/C=C\c2ccc3c(c2)OCO3)c2ccccc21 (configuration not stated) | inconclusive [cytotoxic, single point] | –

Row | SMILES | Potency | activity, negative = less viability
25 | Cc1ccc2nc(/C(C#N)=C\c3ccc(OC(=O)c4cccs4)cc3)[nH]c2c1 | active: 7.94 µM | –
26 | CCO/C=C/C(O)(CNC(=O)c1ccc(C(C)(C)C)cc1)C(F)(F)F (configuration not stated) | inactive | –
27 | O=C(COc1ccc2c(c1)OCO2)Nc1nccs1 | inconclusive [cytotoxic, single point] | –
28 | C[C@@H]1CN([C@H](C)CO)C(=O)Cc2cc(NC(=O)CCC(F)(F)F)ccc2O[C@@H]1CN(C)C(=O)Nc1ccccc1 | inactive | –
29 | C[C@H](CO)N1C[C@H](C)[C@@H](CN(C)Cc2ccc(-c3ccccc3)cc2)Oc2c(NC(=O)Cc3ccccc3)cccc2C1=O | inactive | –
30 | COc1ccc(/C=N/Nc2cc(C)nc(-n3nc(C)cc3C)n2)cc1 | inconclusive [cytotoxic, partial curve] | –
31 | COc1ccc(Cc2nnc(SCC(=O)Nc3ccccc3C#N)o2)cc1 | inactive | –
32 | CC(O)CNc1nc2sc3c(c2c(=O)n1CCc1ccccc1)CCCCC3 (configuration not stated) | inconclusive [cytotoxic, single point] | –
33 | Cc1ccc(-c2cc(C(=O)NNC(=O)c3csc(N4CCOCC4)n3)c3ccccc3n2)cc1 | inconclusive [cytotoxic, single point] | –
34 | Cn1c(NN)nc2sc3c(c2c1=O)CC(C)(C)OC3 | inconclusive [cytotoxic, single point] | –
35 | COc1ccc(C(=O)N/N=C2\CCc3ccccc32)cc1OC | inactive | –
36 | CCN1CCN(C(=O)c2cc(COc3ccc(F)c(F)c3)on2)[C@@H](C)C1=O | inactive | –
37 | CC1=C(C(=O)Nc2ccc(Br)cc2)C(c2ccco2)NC(=O)N1 (configuration not stated) | inactive | –
38 | COc1ccc(-n2nc(C(=O)NCC(=O)NCc3ccc(F)cc3)c3ccccc3c2=O)cc1OC | inconclusive [cytotoxic, single point] | –
39 | COc1ccc(CNC(=O)CSc2nnnn2Cc2ccccc2)cc1 | inconclusive [cytotoxic, partial curve] | –
40 | Cc1ccc(NC(=O)CC[C@H]2O[C@@H](n3cnc4c(NC(=O)c5ccccc5)ncnc43)[C@H](O)[C@@H]2O)cc1C | – | inconclusive: 34.2%
41 | COc1ccccc1Oc1ccc(S(=O)(=O)Nc2cccnc2)cc1 | inconclusive [cytotoxic, single point] | –
42 | COc1ccc(CCNC(=O)C2CCN(S(=O)(=O)c3cccc4nonc34)CC2)cc1OC | inconclusive [cytotoxic, single point] | –
43 | Cc1cc(NC(=O)c2ccc(F)cc2F)n(-c2nc3ccccc3[nH]2)n1 | inactive | –
44 | CN(C)C1=NCCN1CCCC1CCCCC1 | inactive | –
45 | COc1ccc(-c2sc3cc4c(cc3c2-c2ccc(OCCN3CCCCC3)cc2)OCO4)cc1 | inactive | –
46 | OCc1cccc(-c2cnc3c(Nc4cccc(OC(F)(F)C(F)F)c4)nccn23)c1 | inconclusive [cytotoxic, single point] | –
47 | Cc1cc2nc(-c3cccc(Cl)c3)c(CC(C)(C)C)n2c(C)c1Br | inconclusive [cytotoxic, single point] | –
48 | O=C(NC1CCCCC1)C(c1ccnc2ccccc12)n1c(=O)c(-c2ccco2)nc2ccccc21 (configuration not stated) | inactive | –

Row | SMILES | Potency | activity, negative = less viability
49 | Cc1ccc(Nc2nc3ccccc3s2)c(C)c1 | inactive | –
50 | Cc1cc(Nc2ccc(Cl)cc2)nc(N)n1 | inactive | –
51 | O=C(c1ccc(N2CCC3(CC2)OCCO3)c([N+](=O)[O-])c1)N1CCOCC1 | inconclusive [rising, single point] | –
52 | O=C(COC(=O)c1cccnc1Cl)NCc1ccc(F)cc1 | inactive | –
53 | CCOC(=O)c1cc([N+](=O)[O-])cc([N+](=O)[O-])c1Sc1ncnc2nc[nH]c12 | active: 4.61 µM | –
54 | Cc1noc(C)c1S(=O)(=O)N(C)C[C@H]1OCc2cnnn2CCCC(=O)N([C@H](C)CO)C[C@H]1C | inconclusive [rising, single point] | –
55 | O=C(NNC1=C(C(=O)C(F)(F)F)CCC1)c1cccc(O)c1 | inconclusive [cytotoxic, partial curve] | –
56 | Cc1nn(-c2ccccc2)c2sc(C(=O)N(CC(=O)NC(C)(C)C)Cc3ccco3)cc12 | inconclusive [cytotoxic, single point] | –
57 | CCOC(=O)c1cccc(NC(=O)CSc2nnc(CNc3ccc(C)cc3)n2CC)c1 | inconclusive [cytotoxic, single point] | –
58 | COc1ccc(CCNC(=O)Nc2nnc([C@@H]3C[C@H](O)[C@@H](CO)O3)s2)cc1OC | inconclusive [rising, partial curve, poor fit] | –
59 | O=C(CN1CCCC1)NC(c1ccccc1)c1ccccc1 | inconclusive [cytotoxic, single point] | –
60 | Cc1ccc(NC2=C/C(=N\S(=O)(=O)c3cccs3)c3ccccc3C2=O)c(C)c1 | active: 7.31 µM | –
61 | O=c1cc(-c2ccc(O)cc2)oc2cc(O)cc(O)c12 | inconclusive [cytotoxic, single point] | –
62 | CC(C)c1ccc(/C=C2\SC(=S)N(CCC(=O)NCCCn3ccnc3)C2=O)cc1 | inconclusive [cytotoxic, single point] | –
63 | COc1cccc(C(=O)NNC(=O)C(=O)Nc2cccc3ccccc23)c1 | inactive | –
64 | CC1=NN(C(=O)c2ccc(Cn3nc(C)cc3C)o2)C(O)(C(F)(F)F)C1 (configuration not stated) | active: 7.08 µM | –
65 | O=C(O)c1cccc2sc3cc(Cl)ccc3c(=O)c12 | inconclusive [rising, single point] | –
66 | CCCCCCCCN1C(=O)[C@H](CC(=O)NCC2CCCCC2)C[C@@]2(C(=O)OC)CC(C)(C)CC=C12 | inactive | –
67 | COC(=O)c1sccc1NC(=S)OC | – | inconclusive: 31.2%
68 | CCOC(=O)C1(C)CCCCN1C(=O)c1cccnc1 (configuration not stated) | – | inconclusive: 32.4%
69 | Cc1ccc2cccc(Oc3ncnc4scc(-c5ccccc5)c34)c2n1 | inconclusive [cytotoxic, single point] | –
70 | O=C(N/N=C/c1c[nH]c2ccccc12)c1ccn(Cc2ccc(Cl)cc2Cl)n1 | inactive | –
71 | CC(=O)Nc1ccc(NC(=O)C2CCN(c3ccc(C(F)(F)F)cn3)CC2)cc1 | – | inconclusive: -10.8% [cytotoxic]
72 | O=C1CC(C(=O)N(CC2CCCO2)C(C(=O)NC2CCCCC2)c2ccncc2)CS1 (configuration not stated) | inactive | –
